According to PMC9911399, “Two distinct binding modes provide the RNA-binding protein RbFox with extraordinary sequence specificity”:
Where a chain is given by its changes, count along the chain named. The list shows a part of the results.

T1: RBFOX1 RRM (Homo sapiens, UniProt Q9NWB1 109-208)
T1 sequence: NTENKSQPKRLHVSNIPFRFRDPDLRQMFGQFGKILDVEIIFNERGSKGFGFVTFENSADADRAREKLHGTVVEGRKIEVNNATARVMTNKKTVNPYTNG

B1: ACUUAAU (DNA:RNA)
RNA: GGGAGACCGGAAUUCAGAUUGUCCACUUAAUUUAAAUCCCGUCGUAGCCACCA
DNA 1: CAATCTGAATTCCGGTCTCCC
DNA 2: TGGTGGCTACGACGGGATT
B2: AAGCUCC (DNA:RNA)
RNA: B1 RNA with C26A, U27G, U28C, A29U, A30C, U31C
DNA 1: CAATCTGAATTCCGGTCTCCC
DNA 2: TGGTGGCTACGACGGGATT
B3: AUUAAAA (DNA:RNA)
RNA: B1 RNA with C26U, U28A, U31A
DNA 1: CAATCTGAATTCCGGTCTCCC
DNA 2: TGGTGGCTACGACGGGATT
B4: CCGGUCU (DNA:RNA)
RNA: B1 RNA with A25C, U27G, U28G, A29U, A30C
DNA 1: CAATCTGAATTCCGGTCTCCC
DNA 2: TGGTGGCTACGACGGGATT
B5: ACAUGCC (DNA:RNA)
RNA: B1 RNA with U27A, A29G, A30C, U31C
DNA 1: CAATCTGAATTCCGGTCTCCC
DNA 2: TGGTGGCTACGACGGGATT
B6: CGAACCA (DNA:RNA)
RNA: GGGAGACCGGAAUUCAGAUUGUCCCGAACCAUUAAAUCCCGUCGUAGCCACCA
DNA 1: CAATCTGAATTCCGGTCTCCC
DNA 2: TGGTGGCTACGACGGGATT
B7: AACCGCC (DNA:RNA)
RNA: B1 RNA with C26A, U27C, U28C, A29G, A30C, U31C
DNA 1: CAATCTGAATTCCGGTCTCCC
DNA 2: TGGTGGCTACGACGGGATT
B8: GUGGCGG (DNA:RNA)
RNA: B6 RNA with C25G, G26U, A27G, A28G, C30G, A31G
DNA 1: CAATCTGAATTCCGGTCTCCC
DNA 2: TGGTGGCTACGACGGGATT
B9: AACCGGG (DNA:RNA)
RNA: B1 RNA with C26A, U27C, U28C, A29G, A30G, U31G
DNA 1: CAATCTGAATTCCGGTCTCCC
DNA 2: TGGTGGCTACGACGGGATT
B10: CGCCCGC (DNA:RNA)
RNA: B6 RNA with A27C, A28C, C30G, A31C
DNA 1: CAATCTGAATTCCGGTCTCCC
DNA 2: TGGTGGCTACGACGGGATT
B11: GGACGGC (DNA:RNA)
RNA: B6 RNA with C25G, A28C, C29G, C30G, A31C
DNA 1: CAATCTGAATTCCGGTCTCCC
DNA 2: TGGTGGCTACGACGGGATT
B12: ACAAUUG (DNA:RNA)
RNA: B1 RNA with U27A, U28A, A29U, A30U, U31G
DNA 1: CAATCTGAATTCCGGTCTCCC
DNA 2: TGGTGGCTACGACGGGATT
B13: ACGGCGG (DNA:RNA)
RNA: B1 RNA with U27G, U28G, A29C, A30G, U31G
DNA 1: CAATCTGAATTCCGGTCTCCC
DNA 2: TGGTGGCTACGACGGGATT
B14: GAAUCUG (DNA:RNA)
RNA: B6 RNA with C25G, G26A, A28U, C30U, A31G
DNA 1: CAATCTGAATTCCGGTCTCCC
DNA 2: TGGTGGCTACGACGGGATT
B15: CUAACCG (DNA:RNA)
RNA: B6 RNA with G26U, A31G
DNA 1: CAATCTGAATTCCGGTCTCCC
DNA 2: TGGTGGCTACGACGGGATT
B16: GAGGGGU (DNA:RNA)
RNA: B1 RNA with A25G, C26A, U27G, U28G, A29G, A30G
DNA 1: CAATCTGAATTCCGGTCTCCC
DNA 2: TGGTGGCTACGACGGGATT
B17: GUUGUUA (DNA:RNA)
RNA: B1 RNA with A25G, C26U, U28G, A29U, A30U, U31A
DNA 1: CAATCTGAATTCCGGTCTCCC
DNA 2: TGGTGGCTACGACGGGATT
B18: CUCAAUU (DNA:RNA)
RNA: B1 RNA with A25C, C26U, U27C, U28A, A30U
DNA 1: CAATCTGAATTCCGGTCTCCC
DNA 2: TGGTGGCTACGACGGGATT
B19: CAUUAAA (DNA:RNA)
RNA: B1 RNA with A25C, C26A, U31A
DNA 1: CAATCTGAATTCCGGTCTCCC
DNA 2: TGGTGGCTACGACGGGATT
B20: AGCGCAA (DNA:RNA)
RNA: B6 RNA with C25A, A27C, A28G, C30A
DNA 1: CAATCTGAATTCCGGTCTCCC
DNA 2: TGGTGGCTACGACGGGATT
B21: CCUGUGC (DNA:RNA)
RNA: B1 RNA with A25C, U28G, A29U, A30G, U31C
DNA 1: CAATCTGAATTCCGGTCTCCC
DNA 2: TGGTGGCTACGACGGGATT
B22: CGAUCGG (DNA:RNA)
RNA: B6 RNA with A28U, C30G, A31G
DNA 1: CAATCTGAATTCCGGTCTCCC
DNA 2: TGGTGGCTACGACGGGATT
B23: UUCAGGC (DNA:RNA)
RNA: B6 RNA with C25U, G26U, A27C, C29G, C30G, A31C
DNA 1: CAATCTGAATTCCGGTCTCCC
DNA 2: TGGTGGCTACGACGGGATT
B24: GGUGAGA (DNA:RNA)
RNA: B1 RNA with A25G, C26G, U28G, A30G, U31A
DNA 1: CAATCTGAATTCCGGTCTCCC
DNA 2: TGGTGGCTACGACGGGATT
B25: UGAAAAG (DNA:RNA)
RNA: B6 RNA with C25U, C29A, C30A, A31G
DNA 1: CAATCTGAATTCCGGTCTCCC
DNA 2: TGGTGGCTACGACGGGATT
B26: CCUACCA (DNA:RNA)
RNA: B6 RNA with G26C, A27U
DNA 1: CAATCTGAATTCCGGTCTCCC
DNA 2: TGGTGGCTACGACGGGATT
B27: GCGUUAC (DNA:RNA)
RNA: B1 RNA with A25G, U27G, A29U, U31C
DNA 1: CAATCTGAATTCCGGTCTCCC
DNA 2: TGGTGGCTACGACGGGATT
B28: UGUUUGA (DNA:RNA)
RNA: B1 RNA with A25U, C26G, A29U, A30G, U31A
DNA 1: CAATCTGAATTCCGGTCTCCC
DNA 2: TGGTGGCTACGACGGGATT
B29: GAGGCGG (DNA:RNA)
RNA: B6 RNA with C25G, G26A, A27G, A28G, C30G, A31G
DNA 1: CAATCTGAATTCCGGTCTCCC
DNA 2: TGGTGGCTACGACGGGATT
B30: UGGUGAC (DNA:RNA)
RNA: B1 RNA with A25U, C26G, U27G, A29G, U31C
DNA 1: CAATCTGAATTCCGGTCTCCC
DNA 2: TGGTGGCTACGACGGGATT
B31: CUAUGAC (DNA:RNA)
RNA: B1 RNA with A25C, C26U, U27A, A29G, U31C
DNA 1: CAATCTGAATTCCGGTCTCCC
DNA 2: TGGTGGCTACGACGGGATT

target: T1, RBFOX1 RRM; experiment: EMSA; HiTS-Eq, 1 nM pool, 10 min; buffer printed only for the single-RNA assays: 10 mM Tris pH 7.5, 150 mM NaCl, 3.4 mM EDTA, 0.001% NP-40, 30 C; conditions: tags: His6 N-terminal (pET28a); label: 5' 32P
In short: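 Purified RbFox RRM, wild type or mutant, was incubated for 10 min in 50 µL with 1 nM of a 5′-radiolabelled RNA pool carrying 7 randomized nucleotides, whose flanks were annealed to DNA oligonucleotides, over a series of increasing protein concentrations. Unbound RNA was resolved on 8% native PAGE, cut out, reverse-transcribed, barcoded by PCR and sequenced on an Illumina HiSeq 2500. Relative association constants were derived from changes in read counts for each RNA species versus the control reaction and normalised to the cognate motif.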

| Binder | binding signal |
| --- | --- |
| B1 | 0.000828 KA relative to UGCAUGU |
| B2 | 0.00323 KA relative to UGCAUGU |
| B3 | 0.00127 KA relative to UGCAUGU |
| B4 | 0.00289 KA relative to UGCAUGU |
| B5 | 0.00396 KA relative to UGCAUGU |
| B6 | 0.00106 KA relative to UGCAUGU |
| B7 | 0.00718 KA relative to UGCAUGU |
| B8 | 0.0226 KA relative to UGCAUGU |
| B9 | 0.00402 KA relative to UGCAUGU |
| B10 | 0.0134 KA relative to UGCAUGU |
| B11 | 0.0213 KA relative to UGCAUGU |
| B12 | 0.00769 KA relative to UGCAUGU |
| B13 | 0.0186 KA relative to UGCAUGU |
| B14 | 0.0153 KA relative to UGCAUGU |
| B15 | 0.00358 KA relative to UGCAUGU |
| B16 | 0.0189 KA relative to UGCAUGU |

| Binder | binding signal |
| --- | --- |
| B17 | 0.0141 KA relative to UGCAUGU |
| B18 | 0.00356 KA relative to UGCAUGU |
| B19 | 0.000938 KA relative to UGCAUGU |
| B20 | 0.00715 KA relative to UGCAUGU |
| B21 | 0.0232 KA relative to UGCAUGU |
| B22 | 0.0141 KA relative to UGCAUGU |
| B23 | 0.0127 KA relative to UGCAUGU |
| B24 | 0.00596 KA relative to UGCAUGU |
| B25 | 0.0154 KA relative to UGCAUGU |
| B26 | 0.00055 KA relative to UGCAUGU |
| B27 | 0.0111 KA relative to UGCAUGU |
| B28 | 0.0341 KA relative to UGCAUGU |
| B29 | 0.0182 KA relative to UGCAUGU |
| B30 | 0.0057 KA relative to UGCAUGU |
| B31 | 0.00603 KA relative to UGCAUGU |
